The source of these data is publication PMC11631451.

Sequences of proteins named here, by UniProt entry; tags and fusion partners are left off. A change or cut given only in a name is not applied to a line headed by its entry.
UniProt O60934: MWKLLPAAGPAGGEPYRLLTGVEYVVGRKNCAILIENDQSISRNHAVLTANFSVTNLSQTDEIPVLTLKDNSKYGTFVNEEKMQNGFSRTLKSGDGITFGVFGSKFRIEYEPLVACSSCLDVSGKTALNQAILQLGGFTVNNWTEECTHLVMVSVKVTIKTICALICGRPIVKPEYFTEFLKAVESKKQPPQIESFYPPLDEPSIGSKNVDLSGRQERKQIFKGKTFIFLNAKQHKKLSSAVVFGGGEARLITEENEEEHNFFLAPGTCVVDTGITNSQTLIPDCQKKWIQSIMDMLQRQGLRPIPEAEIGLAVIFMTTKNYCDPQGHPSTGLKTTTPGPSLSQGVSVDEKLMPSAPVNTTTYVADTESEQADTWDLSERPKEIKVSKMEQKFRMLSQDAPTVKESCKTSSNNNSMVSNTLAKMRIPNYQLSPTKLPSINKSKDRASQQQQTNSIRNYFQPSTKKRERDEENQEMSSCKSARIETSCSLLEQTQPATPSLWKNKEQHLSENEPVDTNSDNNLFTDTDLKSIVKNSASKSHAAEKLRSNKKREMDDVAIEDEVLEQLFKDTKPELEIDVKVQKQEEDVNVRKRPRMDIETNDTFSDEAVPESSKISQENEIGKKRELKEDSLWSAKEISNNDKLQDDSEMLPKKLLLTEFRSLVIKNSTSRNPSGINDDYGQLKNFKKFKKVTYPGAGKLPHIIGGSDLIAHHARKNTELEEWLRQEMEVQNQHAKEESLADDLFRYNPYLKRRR
UniProt P46100: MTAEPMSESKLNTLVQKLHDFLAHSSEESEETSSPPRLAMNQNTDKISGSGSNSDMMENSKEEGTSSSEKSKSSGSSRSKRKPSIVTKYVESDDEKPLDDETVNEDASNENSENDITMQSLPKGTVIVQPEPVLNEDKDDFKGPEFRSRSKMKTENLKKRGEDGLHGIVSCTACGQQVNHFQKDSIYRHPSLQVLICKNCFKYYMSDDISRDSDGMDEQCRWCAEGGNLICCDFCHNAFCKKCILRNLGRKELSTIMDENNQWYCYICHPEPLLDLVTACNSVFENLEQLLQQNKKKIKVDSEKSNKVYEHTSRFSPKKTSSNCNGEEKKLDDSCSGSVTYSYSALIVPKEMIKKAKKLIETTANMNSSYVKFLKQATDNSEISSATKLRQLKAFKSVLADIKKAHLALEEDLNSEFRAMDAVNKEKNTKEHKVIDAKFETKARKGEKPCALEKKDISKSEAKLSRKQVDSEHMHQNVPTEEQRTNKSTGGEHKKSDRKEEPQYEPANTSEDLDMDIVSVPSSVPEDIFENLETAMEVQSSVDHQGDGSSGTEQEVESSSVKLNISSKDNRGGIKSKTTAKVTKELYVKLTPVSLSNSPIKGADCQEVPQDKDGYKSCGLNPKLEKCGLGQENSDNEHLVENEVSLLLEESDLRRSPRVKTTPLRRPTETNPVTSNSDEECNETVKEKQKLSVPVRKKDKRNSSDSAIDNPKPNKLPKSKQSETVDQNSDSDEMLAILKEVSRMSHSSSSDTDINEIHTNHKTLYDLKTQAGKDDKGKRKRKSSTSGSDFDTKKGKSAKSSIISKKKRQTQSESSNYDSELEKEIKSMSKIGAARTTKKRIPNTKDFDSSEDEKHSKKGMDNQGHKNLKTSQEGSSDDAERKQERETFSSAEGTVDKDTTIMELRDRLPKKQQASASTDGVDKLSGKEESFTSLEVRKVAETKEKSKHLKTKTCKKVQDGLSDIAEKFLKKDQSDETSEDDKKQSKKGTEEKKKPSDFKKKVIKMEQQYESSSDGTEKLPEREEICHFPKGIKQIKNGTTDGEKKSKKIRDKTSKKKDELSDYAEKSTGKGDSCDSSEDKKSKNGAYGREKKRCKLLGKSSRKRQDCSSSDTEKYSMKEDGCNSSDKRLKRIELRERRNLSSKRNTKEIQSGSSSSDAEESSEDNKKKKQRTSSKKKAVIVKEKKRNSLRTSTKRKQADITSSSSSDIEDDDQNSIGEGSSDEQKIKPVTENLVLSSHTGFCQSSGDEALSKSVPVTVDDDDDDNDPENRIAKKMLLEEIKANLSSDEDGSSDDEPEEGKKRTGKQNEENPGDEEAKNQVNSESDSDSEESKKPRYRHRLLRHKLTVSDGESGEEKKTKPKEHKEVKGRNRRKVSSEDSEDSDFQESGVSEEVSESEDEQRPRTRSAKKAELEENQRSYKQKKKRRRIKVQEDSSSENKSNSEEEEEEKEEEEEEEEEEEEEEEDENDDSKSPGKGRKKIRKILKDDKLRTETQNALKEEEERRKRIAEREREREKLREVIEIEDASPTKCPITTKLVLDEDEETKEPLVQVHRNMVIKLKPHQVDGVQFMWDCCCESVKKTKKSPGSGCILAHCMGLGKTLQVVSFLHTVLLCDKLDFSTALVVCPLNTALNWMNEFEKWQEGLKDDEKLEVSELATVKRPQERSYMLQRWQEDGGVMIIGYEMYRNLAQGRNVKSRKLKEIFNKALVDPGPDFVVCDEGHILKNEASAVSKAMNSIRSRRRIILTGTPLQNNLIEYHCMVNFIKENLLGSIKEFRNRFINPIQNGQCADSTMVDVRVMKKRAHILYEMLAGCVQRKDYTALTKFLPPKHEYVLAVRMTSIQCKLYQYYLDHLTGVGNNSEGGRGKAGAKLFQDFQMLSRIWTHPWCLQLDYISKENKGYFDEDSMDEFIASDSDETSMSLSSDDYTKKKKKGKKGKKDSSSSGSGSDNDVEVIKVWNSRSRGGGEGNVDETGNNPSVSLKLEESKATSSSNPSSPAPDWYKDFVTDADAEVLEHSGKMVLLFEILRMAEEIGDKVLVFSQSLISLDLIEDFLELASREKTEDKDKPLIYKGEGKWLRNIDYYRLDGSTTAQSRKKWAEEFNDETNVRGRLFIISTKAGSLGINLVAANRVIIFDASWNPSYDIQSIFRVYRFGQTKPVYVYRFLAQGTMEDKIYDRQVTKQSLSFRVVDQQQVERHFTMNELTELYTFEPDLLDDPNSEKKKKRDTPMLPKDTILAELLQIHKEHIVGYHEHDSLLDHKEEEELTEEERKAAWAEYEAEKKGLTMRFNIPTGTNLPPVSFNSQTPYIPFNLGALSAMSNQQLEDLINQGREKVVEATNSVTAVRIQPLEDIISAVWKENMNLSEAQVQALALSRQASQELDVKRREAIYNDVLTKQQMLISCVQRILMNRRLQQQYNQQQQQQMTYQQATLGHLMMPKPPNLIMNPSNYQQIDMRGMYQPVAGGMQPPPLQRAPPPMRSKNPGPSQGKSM
UniProt Q14676: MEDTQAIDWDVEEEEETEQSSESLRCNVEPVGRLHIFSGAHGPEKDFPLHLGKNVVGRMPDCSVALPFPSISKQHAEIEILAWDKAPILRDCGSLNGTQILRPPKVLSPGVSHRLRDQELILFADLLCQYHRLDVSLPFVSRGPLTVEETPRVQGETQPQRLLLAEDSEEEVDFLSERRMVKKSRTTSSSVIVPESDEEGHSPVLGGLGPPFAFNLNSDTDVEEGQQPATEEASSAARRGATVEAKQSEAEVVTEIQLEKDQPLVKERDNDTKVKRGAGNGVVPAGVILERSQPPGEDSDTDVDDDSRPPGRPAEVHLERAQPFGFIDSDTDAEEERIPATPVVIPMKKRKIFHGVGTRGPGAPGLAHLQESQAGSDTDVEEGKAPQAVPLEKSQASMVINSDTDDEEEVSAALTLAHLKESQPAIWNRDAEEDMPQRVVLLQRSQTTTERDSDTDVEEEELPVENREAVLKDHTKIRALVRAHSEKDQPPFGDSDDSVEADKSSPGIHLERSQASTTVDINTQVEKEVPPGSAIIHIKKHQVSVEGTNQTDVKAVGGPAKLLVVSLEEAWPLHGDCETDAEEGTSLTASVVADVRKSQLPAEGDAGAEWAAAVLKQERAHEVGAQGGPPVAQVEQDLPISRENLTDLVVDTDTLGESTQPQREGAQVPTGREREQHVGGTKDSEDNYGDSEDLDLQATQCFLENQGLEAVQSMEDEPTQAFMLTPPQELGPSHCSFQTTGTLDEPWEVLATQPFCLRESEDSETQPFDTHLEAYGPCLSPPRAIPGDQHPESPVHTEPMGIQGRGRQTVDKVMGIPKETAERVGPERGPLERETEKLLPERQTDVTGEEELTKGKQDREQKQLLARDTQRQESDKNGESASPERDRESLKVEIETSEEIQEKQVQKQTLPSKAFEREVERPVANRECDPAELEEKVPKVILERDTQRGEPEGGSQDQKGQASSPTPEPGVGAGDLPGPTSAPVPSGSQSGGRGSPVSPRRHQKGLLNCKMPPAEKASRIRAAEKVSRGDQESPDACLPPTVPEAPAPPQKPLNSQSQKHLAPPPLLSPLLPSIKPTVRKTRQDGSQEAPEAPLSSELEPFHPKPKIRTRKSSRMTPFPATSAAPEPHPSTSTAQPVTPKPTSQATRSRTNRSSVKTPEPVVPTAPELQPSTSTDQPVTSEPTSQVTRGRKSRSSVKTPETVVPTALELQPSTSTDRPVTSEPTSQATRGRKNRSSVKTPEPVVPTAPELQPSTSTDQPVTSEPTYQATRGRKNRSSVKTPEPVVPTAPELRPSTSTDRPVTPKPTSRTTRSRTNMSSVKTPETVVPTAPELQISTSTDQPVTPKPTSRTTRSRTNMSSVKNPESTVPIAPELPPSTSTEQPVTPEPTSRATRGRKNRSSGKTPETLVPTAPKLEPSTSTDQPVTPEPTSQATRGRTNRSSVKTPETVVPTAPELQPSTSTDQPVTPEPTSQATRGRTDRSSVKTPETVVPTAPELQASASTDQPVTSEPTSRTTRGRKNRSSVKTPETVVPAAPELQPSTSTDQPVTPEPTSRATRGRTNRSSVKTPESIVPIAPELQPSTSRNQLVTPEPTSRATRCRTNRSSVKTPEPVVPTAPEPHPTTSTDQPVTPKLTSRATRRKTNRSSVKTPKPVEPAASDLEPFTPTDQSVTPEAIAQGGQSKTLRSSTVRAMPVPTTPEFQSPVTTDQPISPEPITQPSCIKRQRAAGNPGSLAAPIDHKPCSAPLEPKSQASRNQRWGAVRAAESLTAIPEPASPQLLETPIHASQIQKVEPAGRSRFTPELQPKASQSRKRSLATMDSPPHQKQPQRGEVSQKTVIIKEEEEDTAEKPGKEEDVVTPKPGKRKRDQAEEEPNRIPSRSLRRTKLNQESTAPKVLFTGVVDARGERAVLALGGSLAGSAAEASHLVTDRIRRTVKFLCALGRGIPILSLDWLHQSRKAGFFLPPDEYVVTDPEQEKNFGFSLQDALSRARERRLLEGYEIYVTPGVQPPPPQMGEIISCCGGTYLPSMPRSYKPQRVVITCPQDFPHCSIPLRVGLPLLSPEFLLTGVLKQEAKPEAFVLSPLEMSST

In one test the target is YFP-NBS1[K160M] (UniProt O60934). Kind of test: co-IP; YFP-pulldown (reverse pulldown): lysates of HEK-293FT cells transfected with YFP-NBS1 wild type, R28A or K160M, Benzonase-treated, on GFP-trap magnetic agarose beads 2 h at 4°C; endogenous partners detected by immunoblot.
The next test concerns the target YFP-NBS1[R28A] (UniProt O60934). The description is as above.
Another test has as its target YFP-NBS1[WT] (UniProt O60934). Described as above.
For test [1], the target named is GFP-tagged ATRX (GFP-ATRX WT) (UniProt P46100). Kind of test: co-IP; GFP-pulldown: lysates of HEK-293FT cells transfected with GFP-ATRX constructs, Benzonase-treated, on GFP-trap magnetic agarose beads 2 h at 4°C, four washes with IP lysis buffer; endogenous partners detected by immunoblot. (A western blot detects proteins with antibodies after separation by electrophoresis.)

Test [2] addresses GFP-tagged ATRX (GFP-ATRX WT), P46100. The test is described as above. To be noted: remark: other sources report otherwise.

No constants are given. Whether binding was seen depends on the method and setting. Binding seen in cells or lysates may run through a third protein. Some entries that bind do so weakly or less than the wild type.

Consider “ATRX (endogenous) (from UniProt P46100 1-2492)”, for which the values for the binding entry in the test with YFP-NBS1[K160M], with YFP-NBS1[R28A] and with YFP-NBS1[WT] were “no binding”, “no binding” and “binds”, respectively.

In the case of MDC1 (from UniProt Q14676 1-2089), the binding result in the test with YFP-NBS1[K160M] is “no binding”; with YFP-NBS1[R28A], “no binding”; with YFP-NBS1[WT], “binds”.

NBS1 (from UniProt O60934 1-754): in test [1], the binding entry is “binds”.

B1: RAD50, Q92878 1-1312 (protein)
chain: MSRIEKMSILGVRSFGIEDKDKQIITFFSPLTILVGPNGAGKTTIIECLKYICTGDFPPGTKGNTFVHDPKVAQETDVRAQIRLQFRDVNGELIAVQRSMVCTQKSKKTEFKTLEGVITRTKHGEKVSLSSKCAEIDREMISSLGVSKAVLNNVIFCHQEDSNWPLSEGKALKQKFDEIFSATRYIKALETLRQVRQTQGQKVKEYQMELKYLKQYKEKACEIRDQITSKEAQLTSSKEIVKSYENELDPLKNRLKEIEHNLSKIMKLDNEIKALDSRKKQMEKDNSELEEKMEKVFQGTDEQLNDLYHNHQRTVREKERKLVDCHRELEKLNKESRLLNQEKSELLVEQGRLQLQADRHQEHIRARDSLIQSLATQLELDGFERGPFSERQIKNFHKLVRERQEGEAKTANQLMNDFAEKETLKQKQIDEIRDKKTGLGRIIELKSEILSKKQNELKNVKYELQQLEGSSDRILELDQELIKAERELSKAEKNSNVETLKMEVISLQNEKADLDRTLRKLDQEMEQLNHHTTTRTQMEMLTKDKADKDEQIRKIKSRHSDELTSLLGYFPNKKQLEDWLHSKSKEINQTRDRLAKLNKELASSEQNKNHINNELKRKEEQLSSYEDKLFDVCGSQDFESDLDRLKEEIEKSSKQRAMLAGATAVYSQFITQLTDENQSCCPVCQRVFQTEAELQEVISDLQSKLRLAPDKLKSTESELKKKEKRRDEMLGLVPMRQSIIDLKEKEIPELRNKLQNVNRDIQRLKNDIEEQETLLGTIMPEEESAKVCLTDVTIMERFQMELKDVERKIAQQAAKLQGIDLDRTVQQVNQEKQEKQHKLDTVSSKIELNRKLIQDQQEQIQHLKSTTNELKSEKLQISTNLQRRQQLEEQTVELSTEVQSLYREIKDAKEQVSPLETTLEKFQQEKEELINKKNTSNKIAQDKLNDIKEKVKNIHGYMKDIENYIQDGKDDYKKQKETELNKVIAQLSECEKHKEKINEDMRLMRQDIDTQKIQERWLQDNLTLRKRNEELKEVEEERKQHLKEMGQMQVLQMKSEHQKLEENIDNIKRNHNLALGRQKGYEEEIIHFKKELREPQFRDAEEKYREMMIVMRTTELVNKDLDIYYKTLDQAIMKFHSMKMEEINKIIRDLWRSTYRGQDIEYIEIRSDADENVSASDKRRNYNYRVVMLKGDTALDMRGRCSAGQKVLASLIIRLALAETFCLNCGIIALDEPTTNLDRENIESLAHALVEIIKSRSQQRNFQLLVITHDEDFVELLGRSEYVEKFYRIKKNIDQCSEIVKCSVSSLGFNVH
Turning to B1, the binding entry in test [2] is “binds”.

B2: MRE11, P49959 1-708 (protein)
chain: MSTADALDDENTFKILVATDIHLGFMEKDAVRGNDTFVTLDEILRLAQENEVDFILLGGDLFHENKPSRKTLHTCLELLRKYCMGDRPVQFEILSDQSVNFGFSKFPWVNYQDGNLNISIPVFSIHGNHDDPTGADALCALDILSCAGFVNHFGRSMSVEKIDISPVLLQKGSTKIALYGLGSIPDERLYRMFVNKKVTMLRPKEDENSWFNLFVIHQNRSKHGSTNFIPEQFLDDFIDLVIWGHEHECKIAPTKNEQQLFYISQPGSSVVTSLSPGEAVKKHVGLLRIKGRKMNMHKIPLHTVRQFFMEDIVLANHPDIFNPDNPKVTQAIQSFCLEKIEEMLENAERERLGNSHQPEKPLVRLRVDYSGGFEPFSVLRFSQKFVDRVANPKDIIHFFRHREQKEKTGEEINFGKLITKPSEGTTLRVEDLVKQYFQTAEKNVQLSLLTERGMGEAVQEFVDKEEKDAIEELVKYQLEKTQRFLKERHIDALEDKIDEEVRRFRETRQKNTNEEDDEVREAMTRARALRSQSEESASAFSADDLMSIDLAEQMANDSDDSISAATNKGRGRGRGRRGGRGQNSASRGGSQRGRADTGLETSTRSRNSKTAVSASRNMSIIDAFKSTRQQPSRNVTTKNYSEVIEVDESDVEEDIFPTTSKTDQRWSSTSSSKIMSQSQVSKGVDFESSEDDDDDPFMNTSSLRRNRR
As to B2, the binding result in test [2] is listed as “binds”.
